Experimental findings from the supplement of paper PMC11417369 are described below.

± gives the standard deviation of the averaged measurements. The list shows a part of the results.

The assay has as its system PfAP2-I AP2 domain 3 (GST-tagged). Nature of the assay: gcPBM binding intensity (ln(normalized median fluorescence intensity)); higher = stronger DNA binding. In a few lines:
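The highest Masliner-normalised natural-log median intensity across replicate spots of either probe orientation is reported as binding intensity. GST-tagged P. falciparum DNA-binding domains expressed in E. coli were applied for 1 h to an Agilent 4 × 180k array of primer-extended double-stranded 36-bp intergenic genomic probes plus negative controls, and bound protein was detected with Alexa488 anti-GST antibody and scanned at 488 nm.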
Regarding “TAGAAAAAATAAAATAGTACACATCCAAAAAAAAAA [XGTACX_site7829]”, the “gcPBM binding intensity (ln)” value worked out at 7.96 ± 0.56. “GATATAAACGTATATGTACATATATATATATATATA [GTGCAC_negctrl_site186]”: the “gcPBM binding intensity (ln)” value was found to be 9.62 ± 0.49.

Regarding “ATCATGGAAAAAACAAATGGGCTACATTACCTTTTG [GTGCAC_negctrl_site487]”, the “gcPBM binding intensity (ln)” value came out at 7.43 ± 0.73.

Take “TTGGAGTTCATATGTGGTACACATTTAAATATATTT [XGTACX_site5582]”: the “gcPBM binding intensity (ln)” value is 7.8 ± 0.42. Turning to “ATAATAAATGTCTTCAATGAAGTGGAAATGCTGTTA [TGCATGCA_negctrl_site238]”, the “gcPBM binding intensity (ln)” value worked out at 7.76 ± 0.58. Regarding “ATATATACATAGAATTGTACATAATTTATGTTCATT [XGTACX_site7426]”, the “gcPBM binding intensity (ln)” value turned out to be 7.66 ± 0.45. Regarding “CAAACAAATTGTGAAACACACATATATATATATATA [CACACA_site2001]”, the “gcPBM binding intensity (ln)” value came out at 9.54 ± 0.38.

“AACGTATTATTTATCTGTACAAAATAATAACGTATT [XGTACX_site813]”: the “gcPBM binding intensity (ln)” value turned out to be 7.62 ± 0.52. With “TAAATAAAAATACAGTGTACTTTTTTCTATTTAAAA [XGTACX_site3288]” the figure was 7.62 ± 0.19; with “ATCCAAATTAATAATAGTACTTTTAAGTCCTATGTA [XGTACX_site2452]”, 7.32 ± 0.45; with “TTTTGTTTTTTCAATGTGCACTTAGGATGTTTTTAT [GTGCAC_site9565]”, 10.26 ± 0.014. On to “ATTAATATGAATAAATGTACAAATGAATGATTACAT [XGTACX_site6044]”, for which the “gcPBM binding intensity (ln)” value was 7.61 ± 0.44. Take TAATATAATATATAGGTGCAATATTAACAAAAATTT: the “gcPBM binding intensity (ln)” value was 11 ± 0.44. Regarding “ATAATGTGTTAGGCGTGTACACAATTGTATGGTTTA [XGTACX_site2377]”, the “gcPBM binding intensity (ln)” value is 8.21 ± 0.4. Turning to “AAATAAAATCATAATGTGCGCATATAAATTTGTAGG [GTGCAC_site9662]”, the “gcPBM binding intensity (ln)” value was 8.51 ± 0.37. Under “AAGGTAGATATATTTAGTACGTAATTTTTTTTTTTT [XGTACX_site7288]” stands 7.62 ± 0.23. For the sequence “ATATATATATATGAAAGTACACATCTATTTTTTCTT [XGTACX_site6059]”, the “gcPBM binding intensity (ln)” value came out at 9.29 ± 0.18. For the sequence “TAAATATTATTTATATGTACTGATATATTAAATAAA [XGTACX_site3446]”, the “gcPBM binding intensity (ln)” value was found to be 7.36 ± 0.28. For “AATTAATATTTAAATTGTACATGAACATTTTAATGT [XGTACX_site462]”, the “gcPBM binding intensity (ln)” value was 7.52 ± 0.48. With “AAAATAAAATTTACTTGTACTAAAGGGATACGCGCA [XGTACX_site1453]” the figure was 7.46 ± 0.49; with “GTCACAAAATAAATTAAACACACAACATCATATATG [CACACA_site8182]”, 7.83 ± 0.59; with “AATATAAATTTATATTGTACATATTTTATTATATGT [XGTACX_site905]”, 7.68 ± 0.32. As to “GTGTATCAATATGTAGGTACGTAAATATAGATAATA [XGTACX_site5526]”, the “gcPBM binding intensity (ln)” value amounted to 7.96 ± 0.54. Turning to “AAAAAAAAAAACAGTTGTACATTTATTTATATATTA [XGTACX_site217]”, the “gcPBM binding intensity (ln)” value was found to be 7.49 ± 0.18. In the case of “AAAATAAGGACTGTTGTGCACTGGATTTGTGGTTAC [GTGCAC_site9830]”, the “gcPBM binding intensity (ln)” value was determined as 10.64 ± 0.099.

With “TAAGTAAAAAATTAAAAAGATTACAGGGGGGGAAGG [XGTACX_negctrl_site491]”, the “gcPBM binding intensity (ln)” value worked out at 9.54 ± 0.12. Under “ATTTTAACGAATATATGTACATAAAAAAAAAAAAGA [XGTACX_site8750]” stands 8.23 ± 0.28; under “GACATAAGATAATTACACATTGTTTCCTCAATAATA [CACACA_negctrl_site1616]”, 7.76 ± 0.62. With “ACATATCTACACAGTGGTACTTCCATTAATATATAC [XGTACX_site3827]”, the “gcPBM binding intensity (ln)” value was 8.18 ± 0.62. For the sequence “AAAAGGGATAAATGTGCGCACATGTTATATATATAT [GTGCAC_site9534]”, the “gcPBM binding intensity (ln)” value came out at 9.68 ± 0.18. For “AACAATGTTGTACATACACACACACTAATAAAAAAT [CACACA_site8758]”, the “gcPBM binding intensity (ln)” value was found to be 8.15 ± 0.42. Under “TCATAAATTAAACAAACACACACGTTCTTTTATTTA [CACACA_site713]” stands 7.58 ± 0.64; under “ATTTATTCAAATGGTTGTACTACAAATAAACATTAT [XGTACX_site3378]”, 8.1 ± 0.42; under “AATACATACAGACACACACACACATATAAATAAATA [CACACA_site7642]”, 8.07 ± 0.27. In the case of “GCTCATTGAAGTTATACACACCAAATATGTAAATAT [CACACA_site7217]”, the “gcPBM binding intensity (ln)” value was 8 ± 0.53.

Regarding “TCCTTTTCTTAATTTAAAAAATATAAAAAAAACGAA [CACACA_negctrl_site1821]”, the “gcPBM binding intensity (ln)” value was 7.61 ± 0.27. As to “AGAAGCATACATCAAGCACACACACCCACACCCACA [CACACA_site8014]”, the “gcPBM binding intensity (ln)” value is 8.18 ± 0.44. For “ACACGTTTATATAAAAAATTAAAATTTTTCTTATTT [CACACA_negctrl_site1523]”, the “gcPBM binding intensity (ln)” value is 7.95 ± 0.32. On to “ATAACAAAATAAAACACACACACAAATGTACAGATA [CACACA_site5358]”, for which the “gcPBM binding intensity (ln)” value was 7.97 ± 0.53.

For “TATTCATGTTTAAAAAGTACATATTATGGTAACATT [XGTACX_site4533]”, the “gcPBM binding intensity (ln)” value amounted to 7.94 ± 0.48. On to “ATTTTTGTGTTTACACGTACGTGTAAATTATTTTTC [XGTACX_site1869]”, for which the “gcPBM binding intensity (ln)” value amounted to 8.4 ± 0.76. With “CATAATTTACATAAAAGTACATATATATTAATGACG [XGTACX_site6247]” the figure was 7.79 ± 0.33; with “TTAAATAAAATTTATTGTACATAAAATTAAATATAG [XGTACX_site3039]”, 7.875 ± 0.078; with “AATATTTAAGTACTGGTGCGTGTATATAATGATTAA [GTGCAC_site9633]”, 8.65 ± 0.27.

Regarding “AAACTTGTAAGAAACACACACACACGCATATAAATA [CACACA_site6518]”, the “gcPBM binding intensity (ln)” value is 8.02 ± 0.56. Take “ATAAATAAAATATGCACACAAATATAGGAAACAACA [CACACA_site2561]”: the “gcPBM binding intensity (ln)” value is 8.81 ± 0.33. Take “GTAAAAAAAGAGCACACACACAAAAACACCCACAAA [CACACA_site1292]”: the “gcPBM binding intensity (ln)” value came out at 8.755 ± 0.049. For “TTTATTCCCGCATATAGTACATATACCATTTAATGT [XGTACX_site7011]”, the “gcPBM binding intensity (ln)” value was 8.06 ± 0.84. Under “ATATAATATGGTATTACACACTGTTATAAGTATGGC [CACACA_site2094]” stands 7.8 ± 0.5; under “CATAAATACACTGTAGCGCACACGGCCAAAAAAAAA [CACACA_site8537]”, 9.79 ± 0.4. In the case of “TGTATATACATAAAGTGTACGTATATTTATATATAT [XGTACX_site4320]”, the “gcPBM binding intensity (ln)” value is 8.25 ± 0.3. As for “TATTTTTATTTTACATTATTTGTTTATAATTCTTAA [CACACA_negctrl_site1358]”, the “gcPBM binding intensity (ln)” value came to 7.7 ± 0.46.

For the sequence “AATAAATAAATAAATATATATATATATATATATATA [CACACA_negctrl_site708]”, the “gcPBM binding intensity (ln)” value was 9.45 ± 0.86.

Consider “ATATATATATATAATGCACACATTATAAATTATGTA [CACACA_site5802]”, for which the “gcPBM binding intensity (ln)” value is 11.1 ± 0.26. With “AAAAAAAAAAAAAACACACAAACAAATGAATAAATA [CACACA_site3300]” the figure was 8.15 ± 0.62; with “TTTTTTTTTTATTCATGTACGTATTTAAATAATTCT [XGTACX_site2651]”, 7.92 ± 0.55.
